Here are results for 83 variants from the RNAGym collection of RNA variant scans (doi:10.1093/nar/gkz1192).

B1: CPEB3 Ribozyme (parent)
chain: UAACAGGGGGCCACAGCAGAAGCGUUCACGUCGCAGCCCCUGUCAGAUUCUGGUGAAUCUGCGAAUUCUGCUGUAUAUCUC

The source gives no read counts; variants with many changes may rest on few reads.

In this series the parent is B1. Briefly: self-cleavage, relative activity (ratio to wild type); higher = more cleavage; in vitro, sequencing. Put shortly:
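After error-prone PCR and barcoding, CPEB3 ribozyme mutant libraries were transcribed with T7 RNA polymerase at 37°C for 5 hours, then given 15 min with DNase I before an EDTA stop, and they cleaved during both steps. Reverse transcription with template switching preceded Illumina sequencing. Relative activity divides a variant's cleaved/total read fraction by the unmutated ribozyme's. At least 5 reads were required per variant, and three batches were averaged.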
Consider A18U U69C U72G, for which the self-cleavage turned out to be 0.31. The value for A20G A35U U67A A75U was 0.29; that for G19A A20G U41C was 0.37. On to A20G C27A U43A, for which the self-cleavage stood at 0.51.

Consider A20G A21G U25C, for which the self-cleavage is 0.38.

Take A20G A35U C81U: the self-cleavage is 0.4. In the case of G19A A35G A47G U69C it was 0.24; in that of A20C A56G U60A, 0.21; in that of A20C A21U C62G A77U, 0.07.

Take A20G A21G U74C: the self-cleavage was 0.75. As to A20G A28G U69A, the self-cleavage turned out to be 0.07. Turning to A20C U26C A35U U43C U74C A77G, the self-cleavage came out at 0.08. The value for A20G A21G G46C U60C U66C was 0.16. Turning to A20G A21G A35G, the self-cleavage is 0.67. A20G A21G U67A U72G: the self-cleavage amounted to 0.07. In the case of A20C C29U U31C U48C A77G it was 0.19; in that of A20G A35U U58C U76A U80A, 0.11; in that of A20G A28U A57G, 0.45. With A20G A28U U49C U66A, the self-cleavage was 0.13. For A20C A45C C62A A64G A75G, the self-cleavage stood at 0.04. Turning to A20C C40U U54A A57G U60A A64G, the self-cleavage was 0.06.

With A20C A64U U74A, the self-cleavage worked out at 0.14. As to G19U U49A U72A, the self-cleavage turned out to be 0.17.

Consider A20C A64G U67C A75G, for which the self-cleavage came to 0.05. On to G19U G55A A77G, for which the self-cleavage was 0.15. In the case of A20C U26C A35G it was 0.43; in that of G19A A35G U60C A77U, 0.35; in that of A20G A47G G55C U67C, 0.4. For G19A U43C U58C, the self-cleavage was 0.18. Consider G19U U31A C62U, for which the self-cleavage is 0.1.

As for G19C U41C U43C U58G U80C, the self-cleavage stood at 0.05. Regarding A20G A45U U58C, the self-cleavage was determined as 0.03.

Take A20G C23U U25C: the self-cleavage was 0.38.

In the case of G19U G36A U41A C62U, the self-cleavage amounted to 0.07.

For G19A U41A A45U A56G U72A, the self-cleavage stood at 0.19. Regarding A20G A35G U78C, the self-cleavage was 1.21. The value for A20C A21G U41C U72C was 0.09.

Consider A20G A47G U54A, for which the self-cleavage was found to be 0.79. For the variant G19A A21G A45U U51A G70A G73C U78C, the self-cleavage came to 0.03. A20G A45G A77U: the self-cleavage turned out to be 0.31.

As for G19A U49C U60C, the self-cleavage was 0.15. The value for A20G A35G A64U U67C was 1; that for A20C U25C C38U U48C U80C was 0.04. In the case of A20C U25C A35G U67C it was 0; in that of G19A U31C U58C A65G U69C, 0.1; in that of A20G A21G U72C, 0.2. The value for A20G A57G U69C U72C was 0.15; that for A20G A45U U48C U51C A77U was 0.08. On to G19C U41C A45G, for which the self-cleavage was found to be 0.22.

As to A20G A35U U43A A45U A75G, the self-cleavage is 0.12. On to G19U U25G A77G, for which the self-cleavage was determined as 0.07. With A20C A35G U43A A64U, the self-cleavage was 0.27.

G19U A35G U72C: the self-cleavage is 0.47. As to A20G A56G U67C, the self-cleavage worked out at 0.68. Regarding A20G A35U U60C, the self-cleavage came out at 0.1. For G19U A21G U26G A45G G52U, the self-cleavage was found to be 0.19. For G19U A21G C71G, the self-cleavage came out at 0.08. Turning to A20G A35U G55A, the self-cleavage was 0.2.

In the case of A20G A65G U66G U72C, the self-cleavage stood at 0.12. For the variant A20G A21U A28U A64G A65U U80C, the self-cleavage is 0.09.

In the case of G19U U26C A45C, the self-cleavage amounted to 0.15. Consider A20G A56U A65U U74C, for which the self-cleavage was found to be 0.54. For the variant A20G A28G U49C G53A, the self-cleavage is 0.09. In the case of A20G A28G A35G G52C it was 1.12; in that of A20C G33A U58C C59U A65G, 0.05; in that of A20C A28G G42U, 0.08. The value for A20G A28G G33U A64G was 0.08. Regarding A20C A64U U69C U74C A75G, the self-cleavage turned out to be 0.06. In the case of A20G A45U U51C it was 0.44; in that of G19U U25C U26C A57U U58C U80C, 0.07. A18U U67C C71A: the self-cleavage was 0.15. In the case of A20C A47G U48C U51A it was 0.23; in that of A20G A21C C40U G73C, 0.07; in that of A20G C29A U80C, 0.47. A20G A21G C39A: the self-cleavage was 0.26. As for A20G C29U U48C U49A A56U, the self-cleavage was 0.24. Consider A20G A21G A56U, for which the self-cleavage was 0.1. In the case of A20G A35G A56G U78C it was 1.18. G19A C29G U58C U67A U80C: the self-cleavage was 0.15.

For G19C C37U G63U, the self-cleavage worked out at 0.21. With A20G C29U U54C, the self-cleavage came out at 0.27. With A20G A35C U49A A75G U78A, the self-cleavage came to 0.2. For A20G A28U U43C U54C, the self-cleavage was determined as 0.22.
